{"source": "PubChem BioAssay AID504845", "about": "(National Center for Advancing Translational Sciences (NCATS), 2011)", "note": "About 150 (0.038%) of roughly 390,000 compounds were called active. About 3% were inconclusive and are not listed. Calls follow the shape of the dose curve; as a rule, active = well fitted inhibition curve with a large enough effect; inconclusive = small, poorly fitted or top-dose-only effect; inactive = no such curve, though single readings can be large or run the other way. The entries are a selection whose mix differs from that of the whole data set. Some structures have more than one record in an assay (separate samples or runs), and their calls can disagree. % is scaled to controls: 0 for no effect and ±100 for the full control effect; potency is read from the fitted curve at half-maximal effect."}
{"molecular_target": "Regulator of G-protein signaling 4 (Homo sapiens) (UniProt P49798)", "sequence (P49798 whole entry, looked up)": "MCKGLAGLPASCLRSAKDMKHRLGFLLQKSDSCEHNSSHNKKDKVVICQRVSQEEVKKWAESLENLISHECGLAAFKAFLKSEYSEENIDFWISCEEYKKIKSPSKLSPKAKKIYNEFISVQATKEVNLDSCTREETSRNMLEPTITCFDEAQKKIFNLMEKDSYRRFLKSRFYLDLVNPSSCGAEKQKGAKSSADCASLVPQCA", "assay": "Inhibitors of Regulator of G Protein Signaling (RGS) 4: qHTS; also: nearly all actives have a fitted effect of over 75% in size", "details": "Transcreener GDP fluorescence polarization, RGS4-accelerated GTP hydrolysis; series mostly up to 114 µM; activity change, negative = inhibition: at the top concentration", "outline": "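MLSMR compounds (23 nl, pin-transferred) preincubated 10 min at room temperature with a 500nM (2x) first reagent, then RGS4 at 900nM (2x) plus Transcreener GDP mix added; fluorescence polarization (620/688 nm) read before and after 90 min at 30 °C.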"}
{"smiles": "CSc1nc(C)c(CCOC(=O)c2cccc(Cl)c2)c(=O)[nH]1", "activity change, negative = inhibition": "inactive: 60.6%"}
{"smiles": "NCCCCN", "activity change, negative = inhibition": "inactive: 4.77% [at 56.9 µM]"}
{"smiles": "CC1(C)Oc2ccc(C#N)cc2[C@@H](OC2=CC(=O)CC2)[C@@H]1O", "activity change, negative = inhibition": "inactive: 0% [at 56.9 µM]"}
{"smiles": "COc1ccc(C)cc1S(=O)(=O)N1CCN(S(=O)(=O)c2cc(C)ccc2OC)C(C)C1", "note": "(centres undefined)", "activity change, negative = inhibition": "inactive: 61.5%"}
{"smiles": "O=S(=O)(/N=C(\\Sc1ccccc1)c1ccccc1)c1ccc(Cl)cc1", "activity change, negative = inhibition": "inactive: -45.3%"}
{"smiles": "CN(C)c1nc(N)c(C(=O)N=C(N)N)nc1Cl", "Potency": "inactive"}
{"smiles": "COc1ccc(Oc2coc3cc(OC(=O)c4cncc(Br)c4)ccc3c2=O)cc1", "activity change, negative = inhibition": "inactive: 56.6%"}
{"smiles": "CC/C=C\\C/C=C\\C/C=C\\CCCCCCCC(=O)O", "activity change, negative = inhibition": "inactive: 312% [at 56.9 µM]"}
{"smiles": "C(=C/c1nccc2c1[nH]c1ccccc12)/c1ccc2c(c1)OCO2", "activity change, negative = inhibition": "inactive: -12.4%"}
{"smiles": "O=C(CCc1nc2ccccc2c(=O)[nH]1)NC1CCN(Cc2ccccc2)CC1", "activity change, negative = inhibition": "inactive: 57.9%"}
{"smiles": "Oc1cc(O)cc(/C=C/c2ccc(O)c(O)c2)c1", "activity change, negative = inhibition": "inactive: -17.9%"}
{"smiles": "O=C1OCCC1Sc1nc(-c2ccccc2)cs1", "note": "(centres undefined)", "activity change, negative = inhibition": "inactive: 55.1%"}
{"smiles": "Cc1cccc(C2CN(C)CCc3c2cc(O)c(O)c3Cl)c1", "note": "(centres undefined)", "Potency": "inactive"}
{"smiles": "COc1ccc(OC)c(NC(=O)c2cccc3c2C(=O)N(C2CCCCC2)C3)c1", "activity change, negative = inhibition": "inactive: -6.42%"}
{"smiles": "CS(=O)(=O)c1ccc(-c2cccc(NC(=O)COc3ccccc3)c2)nn1", "activity change, negative = inhibition": "inactive: 64.4%"}
{"smiles": "Cc1ccc(C(C(=O)NC(C)(C)C)N(C(=O)c2csnn2)c2ccccc2F)o1", "note": "(centres undefined)", "activity change, negative = inhibition": "inactive: 61.8%"}
{"smiles": "CC[C@@H]1Cc2cc(O)ccc2C2=C1c1ccc(O)cc1C[C@H]2CC", "Potency": "active: 23.8 µM"}
{"smiles": "Cc1ccc(S(=O)(=O)/C=C/C#N)cc1", "Potency": "active: 5.97 µM"}
{"smiles": "COc1ccccc1NC(=O)CCN1CCN(c2ccc(Cl)cc2)CC1", "activity change, negative = inhibition": "inactive: 56.2%"}
{"smiles": "N[C@H](C(=O)O)c1cccc(O)c1", "activity change, negative = inhibition": "inactive: 424% [at 56.9 µM]"}
{"smiles": "Nc1nc(Nc2ccccc2)nc2c1ncn2[C@@H]1O[C@H](CO)[C@@H](O)[C@H]1O", "Potency": "inactive"}
{"smiles": "Cc1ccc(Nc2c(-c3ccc(C)o3)nc3cccc(C)n23)cc1", "activity change, negative = inhibition": "inactive: -31.7%"}
{"smiles": "CCOC(=O)[C@@H]1[C@H]2COc3cc(OC)ccc3[C@H]2N2C(=O)N(c3ccc(C(F)(F)F)cc3)C(=O)[C@]12C", "activity change, negative = inhibition": "inactive: 28%"}
{"smiles": "CCOC(=O)C1CCCC(NS(=O)(=O)c2ccc(NC(C)=O)cc2)C1", "note": "(centres undefined)", "activity change, negative = inhibition": "inactive: -10.6%"}
{"smiles": "COc1ccc(CNC(=O)c2nn(C)c3c2CS(=O)(=O)c2ccccc2-3)cc1", "activity change, negative = inhibition": "inactive: -7.16%"}
{"smiles": "O=C1OC[C@@H]2CCCN2C(=O)[C@@H](CC(=O)N(CCO)Cc2ccccc2)C/C=C\\C[C@@H]1Cc1ccc(F)cc1", "activity change, negative = inhibition": "inactive: -12.7%"}
{"smiles": "CC(Cc1ccc(O)c(O)c1)C(C)Cc1ccc(O)c(O)c1", "note": "(centres undefined)", "activity change, negative = inhibition": "inactive: -28.7%"}
{"smiles": "CCCCn1c(N)c(N(CC)C(=O)c2cc(Br)ccc2Cl)c(=O)[nH]c1=O", "activity change, negative = inhibition": "inactive: 59%"}
{"smiles": "CCCN(CC(=O)Nc1ccccc1C)C(=O)c1cn2ccccc2n1", "activity change, negative = inhibition": "inactive: 78.5%"}
